Reference: US20210290921A1 (priority 2017, published 2021)

Tested on: SKH1-Elite mice
Conditions: mouse, in vivo

B1: ovalbumin (protein, UniProt P01012 2-386, looked up)
Ovalbumin: GSIGAASMEFCFDVFKELKVHHANENIFYCPIAIMSALAMVYLGAKDSTRTQINKVVRFDKLPGFGDSIEAQCGTSVNVHSSLRDILNQITKPNDVYSFSLASRLYAEERYPILPEYLQCVKELYRGGLEPINFQTAADQARELINSWVESQTNGIIRNVLQPSSVDSQTAMVLVNAIVFKGLWEKAFKDEDTQAMPFRVTEQESKPVQMMYQIGLFRVASMASEKMKILELPFASGTMSMLVLLPDEVSGLEQLESIINFEKLTEWTSSNVMEERKIKVYLPRMKMEEKYNLTSVLMAMGITDVFSSSANLSGISSAESLKISQAVHAAHAEINEAGREVVGSAEAGVDAASVSEEFRADHPFLFCIKHIATNAVLFFGRCVSP
notes: a commonly studied model antigen; endotoxin-free OVA (EndoFit, Invivogen)
- peak OVA-specific IgG titer: 12±4 log 2
